Reference: paper PMC5700101
Results are given in words; binding and its absence hold for the method and conditions named. In cells and extracts the contact can be indirect. Some results given as binding are weak or reduced against the parent protein; the word gives no strength. Where a sequence is shown, tags or fusion partners need not be part of it. Each block holds one binder with its values, some of them ahead of it.

What was measured:
[1] = target: T1, GST-PBD M527R (amino acids 350–576) (Drosophila) (UniProt P52304); test: pull-down; GST–PBD (WT or mutants) on sepharose beads incubated 2 h at 4 °C with clarified lysates of D-Mel2 cells transfected with Flag-KD + IDL (WT or mutants); 50 mM Tris-HCl pH 7.5, 150 mM NaCl, 1 mM EDTA, 10% glycerol, 0.2% Triton X-100; western blot; only the target purified
T1 sequence: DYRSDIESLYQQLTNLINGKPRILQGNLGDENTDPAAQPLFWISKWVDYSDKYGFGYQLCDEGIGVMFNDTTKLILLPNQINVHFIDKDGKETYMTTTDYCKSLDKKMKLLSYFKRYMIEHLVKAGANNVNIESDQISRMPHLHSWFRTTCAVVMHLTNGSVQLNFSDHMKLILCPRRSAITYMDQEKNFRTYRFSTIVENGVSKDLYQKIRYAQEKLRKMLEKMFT

[2] = target: T2, GST-PBD P384R (amino acids 350–576) (Drosophila) (UniProt P52304); test: as above
T2 sequence: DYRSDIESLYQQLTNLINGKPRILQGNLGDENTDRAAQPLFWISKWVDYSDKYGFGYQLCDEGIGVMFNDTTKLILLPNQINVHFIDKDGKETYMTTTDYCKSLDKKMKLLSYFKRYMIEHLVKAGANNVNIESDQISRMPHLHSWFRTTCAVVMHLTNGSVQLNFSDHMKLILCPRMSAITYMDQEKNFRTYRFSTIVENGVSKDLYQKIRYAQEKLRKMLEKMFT

[3] = target: T3, GST-PBD P384R/M527R (amino acids 350–576) (Drosophila) (UniProt P52304); test: as above
T3 sequence: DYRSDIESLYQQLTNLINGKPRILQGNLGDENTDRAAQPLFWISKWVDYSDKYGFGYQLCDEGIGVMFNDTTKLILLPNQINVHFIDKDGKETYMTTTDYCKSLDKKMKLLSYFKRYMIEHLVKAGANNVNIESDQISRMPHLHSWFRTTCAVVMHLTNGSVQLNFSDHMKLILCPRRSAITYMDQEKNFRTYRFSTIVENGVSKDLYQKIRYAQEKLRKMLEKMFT

[4] = target: T4, GST-PBD WT (Polo polo-box domain, amino acids 350–576) (Drosophila) (UniProt P52304); test: as above
T4 sequence: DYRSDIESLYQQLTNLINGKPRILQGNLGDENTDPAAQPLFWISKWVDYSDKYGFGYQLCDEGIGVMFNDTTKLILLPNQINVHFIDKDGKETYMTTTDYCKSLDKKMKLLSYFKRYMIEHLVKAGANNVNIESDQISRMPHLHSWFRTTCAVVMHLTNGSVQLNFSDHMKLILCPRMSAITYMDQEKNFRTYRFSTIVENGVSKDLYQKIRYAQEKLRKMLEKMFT

Polo^WT-GFP (Drosophila) [5] = target: T5, Polo^WT-GFP (Drosophila) (UniProt P52304); test: co-IP; lysates of D-Mel2 cells transfected with Myc-Cdc25 and Polo-GFP (WT or NLS7A), immunoprecipitation with anti-GFP antibodies and Protein A Dynabeads at 4 °C; western blot
T5 sequence: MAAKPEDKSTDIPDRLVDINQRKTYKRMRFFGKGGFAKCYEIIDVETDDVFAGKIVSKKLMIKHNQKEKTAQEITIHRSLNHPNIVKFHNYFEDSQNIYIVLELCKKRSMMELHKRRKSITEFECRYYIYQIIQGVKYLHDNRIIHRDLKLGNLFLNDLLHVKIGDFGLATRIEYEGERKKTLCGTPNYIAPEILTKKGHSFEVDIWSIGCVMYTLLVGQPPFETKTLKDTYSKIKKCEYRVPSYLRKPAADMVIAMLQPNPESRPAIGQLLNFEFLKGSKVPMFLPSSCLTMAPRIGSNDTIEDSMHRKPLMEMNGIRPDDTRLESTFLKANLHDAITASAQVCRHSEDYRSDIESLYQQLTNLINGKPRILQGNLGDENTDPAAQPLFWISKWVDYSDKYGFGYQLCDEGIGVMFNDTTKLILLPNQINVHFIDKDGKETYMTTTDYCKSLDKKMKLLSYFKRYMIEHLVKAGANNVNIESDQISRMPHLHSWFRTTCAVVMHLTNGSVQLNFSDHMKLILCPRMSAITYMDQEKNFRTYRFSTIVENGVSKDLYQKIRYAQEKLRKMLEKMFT

Polo^WT-GFP (Drosophila) [6] = target: T5, Polo^WT-GFP (Drosophila); test: condition: only cells treated with the Cdk1 inhibitor RO 3306 (10 μM); co-IP; as the anti-GFP immunoprecipitation, cells treated with the Cdk1 inhibitor RO 3306 (10 μM) for 1 h before lysis
[7] = target: T6, Luc-KD (KD–IDL of Polo, amino acids 1–349, N-terminally fused to RLucII), KD^WT (Drosophila) (UniProt P52304); test: FRET or BRET; BRET2 titration in live HEK293T cells: fixed Luc-KD plasmid (40 ng), PBD–GFP plasmid 0-400 ng, with a co-expressed Map205 fragment (residues 254–416, C-terminal Myc, 200 ng) that stabilizes the PBD–KD complex; coelenterazine 400a
T6 sequence: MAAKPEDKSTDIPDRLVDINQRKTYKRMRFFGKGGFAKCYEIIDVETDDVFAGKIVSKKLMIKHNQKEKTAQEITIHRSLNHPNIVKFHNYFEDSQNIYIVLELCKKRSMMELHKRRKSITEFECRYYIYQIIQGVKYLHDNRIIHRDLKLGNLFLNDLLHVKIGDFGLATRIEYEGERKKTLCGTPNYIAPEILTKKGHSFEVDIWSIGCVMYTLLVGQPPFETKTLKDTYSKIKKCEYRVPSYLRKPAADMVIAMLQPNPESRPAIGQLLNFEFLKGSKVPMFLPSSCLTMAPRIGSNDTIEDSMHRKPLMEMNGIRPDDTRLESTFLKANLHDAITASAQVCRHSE

[8] = target: T7, Luc-KD^T182A (Drosophila) (UniProt P52304); test: as above
T7 sequence: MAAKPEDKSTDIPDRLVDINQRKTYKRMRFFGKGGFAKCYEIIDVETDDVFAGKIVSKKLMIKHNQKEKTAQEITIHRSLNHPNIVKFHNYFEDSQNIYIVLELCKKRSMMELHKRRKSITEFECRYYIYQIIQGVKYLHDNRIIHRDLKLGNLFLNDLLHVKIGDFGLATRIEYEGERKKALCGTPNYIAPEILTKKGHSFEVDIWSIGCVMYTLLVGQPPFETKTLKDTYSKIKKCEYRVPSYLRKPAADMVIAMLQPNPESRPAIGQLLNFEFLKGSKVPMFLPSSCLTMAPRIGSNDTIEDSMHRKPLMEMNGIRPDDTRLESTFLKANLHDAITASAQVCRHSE

B1: Flag-KD + IDL^WT (Polo kinase domain with the interdomain linker, amino acids 1–349) (domain or fragment, UniProt P52304 1-349)
chain: MAAKPEDKSTDIPDRLVDINQRKTYKRMRFFGKGGFAKCYEIIDVETDDVFAGKIVSKKLMIKHNQKEKTAQEITIHRSLNHPNIVKFHNYFEDSQNIYIVLELCKKRSMMELHKRRKSITEFECRYYIYQIIQGVKYLHDNRIIHRDLKLGNLFLNDLLHVKIGDFGLATRIEYEGERKKTLCGTPNYIAPEILTKKGHSFEVDIWSIGCVMYTLLVGQPPFETKTLKDTYSKIKKCEYRVPSYLRKPAADMVIAMLQPNPESRPAIGQLLNFEFLKGSKVPMFLPSSCLTMAPRIGSNDTIEDSMHRKPLMEMNGIRPDDTRLESTFLKANLHDAITASAQVCRHSE
binding [1]: no binding
binding [2]: no binding
binding [3]: no binding
binding [4]: binds

B3: Myc-Cdc25(String) (enzyme, UniProt P20483 1-479)
chain: MLWETIVEENNCSMDCNISNNTSSSSSINKMSGSRRARRSLELMSMDQEELSFYDDDVVPQDQQRSASPELMGLLSPEGSPQRFQIVRQPKILPAMGVSSDHTPARSFRIFNSLSSTCSMESSMDDEYMELFEMESQSQQTALGFPSGLNSLISGQIKEQPAAKSPAGLSMRRPSVRRCLSMTESNTNSTTTPPPKTPETARDCFKRPEPPASANCSPIQSKRHRCAAVEKENCPAPSPLSQVTISHPPPLRKCMSLNDAEIMSALARSENRNEPELIGDFSKAYALPLMEGRHRDLKSISSETVARLLKGEFSDKVASYRIIDCRYPYEFEGGHIEGAKNLYTTEQILDEFLTVQQTELQQQQNAESGHKRNIIIFHCEFSSERGPKMSRFLRNLDRERNTNAYPALHYPEIYLLHNGYKEFFESHVELCEPHAYRTMLDPAYNEAYRHFRAKSKSWNGDGLGGATGRLKKSRSRLML
binding (Polo^WT-GFP (Drosophila) [5]): binds
binding (Polo^WT-GFP (Drosophila) [6]): no binding

The remaining lines, values ahead:

binding [4]: binds
B2: Flag-KD + IDL^T182A (domain or fragment, UniProt P52304 1-349)
chain: MAAKPEDKSTDIPDRLVDINQRKTYKRMRFFGKGGFAKCYEIIDVETDDVFAGKIVSKKLMIKHNQKEKTAQEITIHRSLNHPNIVKFHNYFEDSQNIYIVLELCKKRSMMELHKRRKSITEFECRYYIYQIIQGVKYLHDNRIIHRDLKLGNLFLNDLLHVKIGDFGLATRIEYEGERKKALCGTPNYIAPEILTKKGHSFEVDIWSIGCVMYTLLVGQPPFETKTLKDTYSKIKKCEYRVPSYLRKPAADMVIAMLQPNPESRPAIGQLLNFEFLKGSKVPMFLPSSCLTMAPRIGSNDTIEDSMHRKPLMEMNGIRPDDTRLESTFLKANLHDAITASAQVCRHSE

binding [7]: binds
binding [8]: binds
B4: PBD–GFP (PBD of Polo, amino acids 350–576, C-terminally fused to GFP10) (domain or fragment, UniProt P52304 350-576)
chain: DYRSDIESLYQQLTNLINGKPRILQGNLGDENTDPAAQPLFWISKWVDYSDKYGFGYQLCDEGIGVMFNDTTKLILLPNQINVHFIDKDGKETYMTTTDYCKSLDKKMKLLSYFKRYMIEHLVKAGANNVNIESDQISRMPHLHSWFRTTCAVVMHLTNGSVQLNFSDHMKLILCPRMSAITYMDQEKNFRTYRFSTIVENGVSKDLYQKIRYAQEKLRKMLEKMFT
